Results as given in publication PMC4336329 (PLoS ONE, 2015).
The campaign covered roughly 310,000 compounds. About 2,200 (0.71%) showed an effect of 50% or more. Effects have a minus sign here. The list shows a part of the results.

biological target: human ether-à-go-go-related gene (hERG) potassium channel (human, UniProt Q12809); assay: primary screen, population patch clamp on CHO cells stably expressing hERG
Sequence (Q12809 whole entry, looked up): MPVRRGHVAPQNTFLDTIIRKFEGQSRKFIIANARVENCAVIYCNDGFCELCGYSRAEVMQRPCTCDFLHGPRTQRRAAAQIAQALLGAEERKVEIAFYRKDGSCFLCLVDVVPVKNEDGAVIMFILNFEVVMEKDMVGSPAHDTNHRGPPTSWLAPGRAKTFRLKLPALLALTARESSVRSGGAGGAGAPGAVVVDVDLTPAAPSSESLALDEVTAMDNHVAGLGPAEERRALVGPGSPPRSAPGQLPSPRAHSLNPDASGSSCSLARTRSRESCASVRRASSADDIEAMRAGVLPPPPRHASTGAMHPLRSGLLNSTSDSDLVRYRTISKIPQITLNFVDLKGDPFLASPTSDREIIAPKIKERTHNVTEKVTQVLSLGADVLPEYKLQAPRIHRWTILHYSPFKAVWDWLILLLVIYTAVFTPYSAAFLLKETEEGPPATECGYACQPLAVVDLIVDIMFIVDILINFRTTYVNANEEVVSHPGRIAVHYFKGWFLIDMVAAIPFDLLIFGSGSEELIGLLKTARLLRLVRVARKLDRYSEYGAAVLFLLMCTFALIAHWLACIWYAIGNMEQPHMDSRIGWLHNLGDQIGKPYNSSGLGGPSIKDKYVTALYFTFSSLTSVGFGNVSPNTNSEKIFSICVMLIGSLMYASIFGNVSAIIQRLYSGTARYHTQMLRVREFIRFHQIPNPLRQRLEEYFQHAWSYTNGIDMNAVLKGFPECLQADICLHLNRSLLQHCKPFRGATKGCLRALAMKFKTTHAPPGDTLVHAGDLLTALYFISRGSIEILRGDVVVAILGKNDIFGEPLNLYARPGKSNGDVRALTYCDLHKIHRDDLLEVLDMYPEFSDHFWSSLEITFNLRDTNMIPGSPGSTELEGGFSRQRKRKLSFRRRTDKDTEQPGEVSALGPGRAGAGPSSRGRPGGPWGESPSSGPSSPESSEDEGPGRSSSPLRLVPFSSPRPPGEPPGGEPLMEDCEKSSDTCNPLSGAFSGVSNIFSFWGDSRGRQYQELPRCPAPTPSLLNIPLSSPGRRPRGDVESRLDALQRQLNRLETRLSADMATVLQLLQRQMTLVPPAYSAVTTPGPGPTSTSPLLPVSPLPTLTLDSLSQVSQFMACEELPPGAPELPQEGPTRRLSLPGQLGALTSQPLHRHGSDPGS

Going from Cc1ccc(S(=O)(=O)N(C)C/N=C(\N)N[N+](=O)[O-])cc1 to CCC(C)NS(=O)(=O)c1ccc(OCC(=O)NCc2ccccn2)cc1 (stereo not shown), the “hERG current change (%, negative = inhibition) at 1uM” value falls from 14.8% to 5.8%.

Compared with COc1ccc(/C=C2/SC(=S)N(CC(=O)O)C2=O)cc1OCc1ccc(Cl)cc1, COc1ccc(Cn2c(C(F)(F)F)ccc(C(N)=O)c2=O)cc1 is lower in “hERG current change (%, negative = inhibition) at 1uM” value: 17.6% for the first, 11.5% for the second.

Going from COc1ccc(CCN2CCCC(CN(C)C(=O)c3ccoc3C)C2)cc1 (stereo not shown) to COc1ccc(CNC(=O)C2CCN(c3nccs3)CC2)cc1, the “hERG current change (%, negative = inhibition) at 1uM” value falls from 18.4% to -3.73%.

Going from Cc1ccc(-c2cc(C(=O)N3CCN(C4CCS(=O)(=O)C4)CC3)c3ccccc3n2)cc1 (stereo not shown) to O=C(Nc1ccc(Cl)cc1)C1CC(=O)n2c(nc3ccccc32)N1 (stereo not shown), the “hERG current change (%, negative = inhibition) at 1uM” value rises from -3.04% to 8.1%.

First: Cc1cccc(OCC(=O)Nc2ccc3c(c2)nc(CCN2CCCCC2)n3C)c1
Second: Cl.O=C(COc1ccc(Br)cc1)NCCN1CCCC1
The “hERG current change (%, negative = inhibition) at 1uM” value of the first is lower: -58.3% for the first, -5.54% for the second.

Compared with O=C(COc1ccc(Br)cc1)NCCCn1ccnc1, Cc1ccc(S(=O)(=O)N2CCOCC2)cc1NC(=O)COc1ccc(-c2nnco2)cc1 is lower in “hERG current change (%, negative = inhibition) at 1uM” value: 15.1% for the first, -17.3% for the second.

Going from COCCCN1C(=O)C(=O)/C(=C(/O)c2ccc(S(=O)(=O)N3CCCCC3)cc2)C1c1ccc(O)c(OC)c1 (stereo not shown) to COc1ccc(S(=O)(=O)N2CCc3cc4c(cc3C2C)OCCCO4)cc1 (stereo not shown), the “hERG current change (%, negative = inhibition) at 1uM” value rises from -6.76% to 8.24%.

First: CCOc1ncccc1C(=O)Nc1nc(C(C)(C)C)cs1
Second: CCOC(=O)C(=O)Cc1nc2ccccc2s1
The “hERG current change (%, negative = inhibition) at 1uM” value of the first is lower: -0.695% for the first, 5.66% for the second.

Going from Cc1c(C)c2ccc(OS(C)(=O)=O)c(C)c2oc1=O to COc1ccc(NC(=O)c2cc3c(=O)n4ccccc4nc3n2C)cc1OC, the “hERG current change (%, negative = inhibition) at 1uM” value rises from 1.94% to 11.4%.

Compared with CC1(C)CC(=O)C2=C(C1)c1c(ccc3ccccc13)NC2c1ccco1 (stereo not shown), CC(c1cccs1)N(Cc1ccco1)C(=S)Nc1ccccc1Cl (stereo not shown) is higher in “hERG current change (%, negative = inhibition) at 1uM” value: 6.38% for the first, 11.9% for the second.

Compared with O=C(N/N=C1\CCS(=O)(=O)c2ccc(F)cc21)c1ccc(O)cc1, O=C(Cn1nc2ccccc2n1)N/N=C/c1ccc(F)cc1 is higher in “hERG current change (%, negative = inhibition) at 1uM” value: 8.27% for the first, 9.25% for the second.

Going from CCc1cc2c(=O)c(-c3nc4ccccc4n3C)c(C)oc2c(CN2CCCCC2)c1O to O=S(=O)(/N=C(/c1ccccc1)N1CCCCC1)c1ccccc1, the “hERG current change (%, negative = inhibition) at 1uM” value rises from 0.017% to 8.37%.

First: Cc1ccc2c(c1)N=C(c1ccc(F)cc1)CO2
Second: COc1ccccc1N(O)C1CC(=O)N(c2ccc(F)cc2)C1=O (stereo not shown)
The “hERG current change (%, negative = inhibition) at 1uM” value of the first is higher: 12.6% for the first, 10.9% for the second.

First: Cc1nn(Cc2c(F)c(F)c(F)c(F)c2F)c(C)c1NC(=O)c1ccnn1C
Second: Cc1cc(-n2c(SCC(=O)Nc3ccc(F)c(F)c3)nc3n[nH]c(C)c3c2=N)ccc1Cl
The “hERG current change (%, negative = inhibition) at 1uM” value of the first is lower: -11.8% for the first, 14.4% for the second.

Compared with COc1ccc2c(c1OC)C(=O)N1C2SC(C)(C)[C@H]1C(=O)NC1CC1 (stereo partly shown), COc1cc(OC)cc(C(=O)Nc2cccc(N3CCCC3)c2)c1 is lower in “hERG current change (%, negative = inhibition) at 1uM” value: 11.9% for the first, 7.97% for the second.

Compared with CCC(=Nc1ccccc1N)c1c(O)[nH]c(=O)[nH]c1=O, CCOP(=O)(OCC)C(NC(=O)c1ccccc1Cl)=C(Cl)Cl is higher in “hERG current change (%, negative = inhibition) at 1uM” value: 16.3% for the first, 20.7% for the second.

Going from CCOC(=O)N1CCN(C(=O)C2CCN(c3ncnc4c3sc3cccc(F)c34)CC2)CC1 to CCOCCCNC(=O)C1CC(=O)N(CCc2ccc(C)cc2)C1 (stereo not shown), the “hERG current change (%, negative = inhibition) at 1uM” value rises from -24.5% to 7.88%.

Cc1nc2ccsc2c(=O)n1-c1cccc(Cl)c1 and CCOC(=O)NC1(Nc2cccc(Cl)c2)Oc2ccccc2O1 are the same in “hERG current change (%, negative = inhibition) at 1uM” value: 13.7% for the first, 13.7% for the second.

First: CC1CC(Nc2ccccc2)c2ccccc2N1C(=O)c1cccnc1 (stereo not shown)
Second: O=C(NCc1cccc(Cl)c1)c1ccc(N2CC3CC(C2)c2cccc(=O)n2C3)c(NC(=O)c2cccnc2)c1 (stereo not shown)
The “hERG current change (%, negative = inhibition) at 1uM” value of the first is higher: 8.38% for the first, 2.48% for the second.

Compared with O=C(NCCc1cccs1)c1ccc(CS(=O)Cc2ccc(Cl)cc2)o1 (stereo not shown), C=CCOc1ccccc1/C=N/NC(=O)Cc1ccc(C)cc1 is higher in “hERG current change (%, negative = inhibition) at 1uM” value: -11.4% for the first, 15.7% for the second.

Going from CC(=O)Nc1cccc(C(=O)OCC(=O)NNC(=O)c2cccs2)c1 to Cc1ccc(NC(=O)N(CCC#N)Cc2ccccc2)cc1, the “hERG current change (%, negative = inhibition) at 1uM” value falls from 14.5% to 9.67%.

CCN1CCCC1CNC(=O)C(=O)NC1CC1 (stereo not shown) was tested, and the “hERG current change (%, negative = inhibition) at 1uM” value was 15.3%.
